In patent US20190002429A1, “Derivatives of Xanthone Compounds” (Agency for Science, Technology and Research, priority 2011, published 2019):

Test system: Mycobacterium tuberculosis

**Q.** Which MIC100 does the source give for `COc1c(OCCCCBr)cc2oc3cc(OCCCCBr)c(CC=C(C)C)c(O)c3c(=O)c2c1CC=C(C)C` [AM-005] here?
**A.** The MIC100 was “NI (no activity at 250 nmol/mL)”.
